Test results as given in the supplement of paper PMC4604168 (melanoma cell lines).
Some of the results follow. Single values are uncertain, as repeats are few or missing.

Key:
Assay in all cases: cell count relative to DMSO control; melanoma cells; higher = more viable cells
Conditions in all cases: library dose: standard library concentration; 72 h
[1] = test system: G361
[2] = test system: IPC-298
[3] = test system: IST-MEL1
[4] = test system: LB2518-MEL
[5] = test system: LOXIMVI
[6] = test system: MEL-HO
[7] = test system: MZ2-MEL
[8] = test system: MeWo
[9] = test system: RPMI7951
[10] = test system: RVH-421
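Also: cells treated in 1,536-well plates, then fixed and DAPI-stained, with nuclei counted from automated high-throughput microscope images.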

Cc1cn(-c2cc(NC(=O)c3ccc(C)c(Nc4nccc(-c5cccnc5)n4)c3)cc(C(F)(F)F)c2)cn1 [nilotinib] + Cc1nc(Nc2ncc(C(=O)Nc3c(C)cccc3Cl)s2)cc(N2CCN(CCO)CC2)n1 [dasatanib] (first compound 1 µM, partner dose 0.02 µM)
cell count [1]: 67.8%
cell count [2]: 97.2%
cell count [3]: 60.7%
cell count [4]: 77.5%
cell count [5]: 46.1%
cell count [6]: 84.8%
cell count [7]: 67%
cell count [8]: 75.4%
cell count [9]: 45.2%
cell count [10]: 87.3%

Cn1c(=O)n(-c2ccc(C(C)(C)C#N)cc2)c2c3cc(-c4cnc5ccccc5c4)ccc3ncc21 + Cn1c(Nc2ccc(C(F)(F)F)cc2)nc2cc(Oc3ccnc(-c4ncc(C(F)(F)F)[nH]4)c3)ccc21 [CHIR265] (first compound 0.02 µM, partner dose 0.4 µM)
cell count [1]: 6.98%
cell count [2]: 41%
cell count [3]: 64.1%
cell count [4]: 18.5%
cell count [5]: 87.4%
cell count [6]: 49.8%
cell count [7]: 41.8%
cell count [8]: 44.2%
cell count [9]: 45.4%
cell count [10]: 40.9%

Cc1cc(Nc2cc(N3CCN(C)CC3)nc(/C=C/c3ccccc3)n2)n[nH]1 + NC1(c2ccc(-c3nc4ccn5c(=O)[nH]nc5c4cc3-c3ccccc3)cc2)CCC1 [MK2206] (first compound 0.2 µM, partner dose 2 µM)
cell count [1]: 86.8%
cell count [2]: 83.8%
cell count [3]: 86.8%
cell count [4]: 60.2%
cell count [5]: 91.4%
cell count [6]: 67.7%
cell count [7]: 97.6%
cell count [8]: 76.6%
cell count [9]: 44.8%
cell count [10]: 64.2%

CC(C)C[C@H](NC(=O)[C@H](Cc1ccccc1)NC(=O)c1cnccn1)B(O)O [Bortezomib] + C=CCNC1=C2C[C@@H](C)C[C@H](OC)[C@H](O)[C@@H](C)/C=C(\C)[C@H](OC(N)=O)[C@@H](OC)/C=C\C=C(/C)C(=O)NC(=CC1=O)C2=O [Tanespimycin] (first compound 0.005 µM, partner dose 0.01 µM)
cell count [1]: 1.39%
cell count [2]: 14.9%
cell count [3]: 14.3%
cell count [4]: 6.19%
cell count [5]: 33.4%
cell count [6]: 40.4%
cell count [7]: 6.5%
cell count [8]: 22.1%
cell count [9]: 4.65%
cell count [10]: 7.74%

CC(C)C[C@H](NC(=O)[C@H](Cc1ccccc1)NC(=O)c1cnccn1)B(O)O [Bortezomib] + C[C@@H](Oc1cc(-c2cnn(C3CCNCC3)c2)cnc1N)c1c(Cl)ccc(F)c1Cl [Crizotinib] (first compound 0.005 µM, partner dose 1 µM)
cell count [1]: 1.13%
cell count [2]: 21.6%
cell count [3]: 15%
cell count [4]: 4.12%
cell count [5]: 20.9%
cell count [6]: 29.6%
cell count [7]: 7.83%
cell count [8]: 12.8%
cell count [9]: 3.69%
cell count [10]: 80.9%

Cc1cc(Nc2cc(N3CCN(C)CC3)nc(/C=C/c3ccccc3)n2)n[nH]1 + Nc1ncn([C@H]2C[C@H](O)[C@@H](CO)O2)c(=O)n1 [decitabine] (first compound 0.2 µM, partner dose 0.5 µM)
cell count [1]: 67.4%
cell count [2]: 56.7%
cell count [3]: 75.7%
cell count [4]: 77%
cell count [5]: 79.5%
cell count [6]: 70.4%
cell count [7]: 67.7%
cell count [8]: 60.1%
cell count [9]: 80.4%
cell count [10]: 69.8%

Cc1cn(-c2cc(NC(=O)c3ccc(C)c(Nc4nccc(-c5cccnc5)n4)c3)cc(C(F)(F)F)c2)cn1 [nilotinib] + Cc1cc([N+](=O)[O-])ccc1NS(=O)(=O)c1cc(Cl)ccc1Cl [FH535] (first compound 1 µM, partner dose 5 µM)
cell count [1]: 54.2%
cell count [2]: 69.4%
cell count [3]: 58.1%
cell count [4]: 96.8%
cell count [5]: 89.6%
cell count [6]: 58.9%
cell count [7]: 88.4%
cell count [8]: 96.7%
cell count [9]: 90%
cell count [10]: 96.6%

Cc1cn(-c2cc(NC(=O)c3ccc(C)c(Nc4nccc(-c5cccnc5)n4)c3)cc(C(F)(F)F)c2)cn1 [nilotinib] + CN(C)S(=O)(=O)c1ccc2c(c1)/C(=C/c1cc3c([nH]1)CCCC3)C(=O)N2 [SU6656] (first compound 1 µM, partner dose 2 µM)
cell count [1]: 80.3%
cell count [2]: 78.1%
cell count [3]: 90.6%
cell count [4]: 85.1%
cell count [5]: 92.8%
cell count [6]: 85.3%
cell count [7]: 91.6%
cell count [8]: 99.6%
cell count [9]: 61%
cell count [10]: 86.1%

Cn1c(=O)n(-c2ccc(C(C)(C)C#N)cc2)c2c3cc(-c4cnc5ccccc5c4)ccc3ncc21 + Cn1cncc1[C@@](N)(c1ccc(Cl)cc1)c1ccc2c(c1)c(-c1cccc(Cl)c1)cc(=O)n2C [tipifarnib] (first compound 0.02 µM, partner dose 0.05 µM)
cell count [1]: 42.1%
cell count [2]: 74.9%
cell count [3]: 58.9%
cell count [4]: 74%
cell count [5]: 65%
cell count [6]: 62.6%
cell count [7]: 77.9%
cell count [8]: 64.2%
cell count [9]: 67.8%
cell count [10]: 63.5%

Cn1c(=O)n(-c2ccc(C(C)(C)C#N)cc2)c2c3cc(-c4cnc5ccccc5c4)ccc3ncc21 + COCC[n+]1c2c(n(Cc3cnccn3)c1C)C(=O)c1ccccc1C2=O [YM155] (first compound 0.02 µM, partner dose 0.002 µM)
cell count [1]: 48.5%
cell count [2]: 42.5%
cell count [3]: 41.9%
cell count [4]: 22.7%
cell count [5]: 51.7%
cell count [6]: 58.2%
cell count [7]: 21.5%
cell count [8]: 39.2%
cell count [9]: 35.2%
cell count [10]: 68.8%
